# About 14,000 (4.5%) of roughly 310,000 compounds showed an effect of 50% or more. Effects have a minus sign here. This is one part of the list.
# Molecular target: human ether-à-go-go-related gene (hERG) potassium channel (human, UniProt Q12809)
# Test: primary screen, population patch clamp on CHO cells stably expressing hERG
# 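Also: peak tail current of the secondary pulse compared with the same well before compound.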
# Chain of human ether-à-go-go-related gene (hERG) potassium channel (Q12809 whole entry, looked up): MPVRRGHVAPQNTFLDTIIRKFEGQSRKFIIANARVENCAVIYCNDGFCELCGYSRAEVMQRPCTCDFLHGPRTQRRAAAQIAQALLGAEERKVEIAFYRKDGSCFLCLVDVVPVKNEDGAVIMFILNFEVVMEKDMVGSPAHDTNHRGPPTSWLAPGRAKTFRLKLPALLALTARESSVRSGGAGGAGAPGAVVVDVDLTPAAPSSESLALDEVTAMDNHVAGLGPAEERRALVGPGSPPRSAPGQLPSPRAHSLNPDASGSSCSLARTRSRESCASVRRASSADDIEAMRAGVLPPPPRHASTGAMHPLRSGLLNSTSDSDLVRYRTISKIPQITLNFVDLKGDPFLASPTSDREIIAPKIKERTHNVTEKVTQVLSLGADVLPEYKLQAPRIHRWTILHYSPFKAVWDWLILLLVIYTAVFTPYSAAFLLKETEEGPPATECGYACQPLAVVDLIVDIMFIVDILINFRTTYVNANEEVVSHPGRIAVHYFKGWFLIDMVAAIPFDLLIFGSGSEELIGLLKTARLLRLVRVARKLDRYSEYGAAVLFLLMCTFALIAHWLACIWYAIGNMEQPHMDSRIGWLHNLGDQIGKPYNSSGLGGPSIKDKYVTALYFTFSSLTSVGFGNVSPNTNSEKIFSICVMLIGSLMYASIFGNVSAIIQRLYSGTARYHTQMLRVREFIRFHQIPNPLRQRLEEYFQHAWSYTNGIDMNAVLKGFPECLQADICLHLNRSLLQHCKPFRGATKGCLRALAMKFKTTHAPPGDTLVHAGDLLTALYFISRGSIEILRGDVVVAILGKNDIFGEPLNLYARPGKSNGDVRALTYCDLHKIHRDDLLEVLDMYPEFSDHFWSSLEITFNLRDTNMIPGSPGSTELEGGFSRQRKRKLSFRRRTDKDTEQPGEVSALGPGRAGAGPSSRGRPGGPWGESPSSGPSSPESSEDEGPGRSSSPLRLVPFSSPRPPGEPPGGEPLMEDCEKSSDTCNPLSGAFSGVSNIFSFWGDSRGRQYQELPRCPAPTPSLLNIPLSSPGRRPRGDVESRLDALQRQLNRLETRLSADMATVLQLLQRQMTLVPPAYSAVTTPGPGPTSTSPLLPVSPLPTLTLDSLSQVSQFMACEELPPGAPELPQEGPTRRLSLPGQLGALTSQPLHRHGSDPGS
row,Structure (SMILES),"hERG current change (%, negative = inhibition) at 10uM [%]"
1,COC(=O)C1=C(c2cccc(C#N)c2)C[C@@H]2CC[C@H]1N2C(=O)NCCO,15.7
2,CCCC(=O)Nc1ccc(Cl)c(NC(=S)NC(=O)c2cc3ccccc3o2)c1,-2.87
3,CCOC(=O)c1cccc(OC(=O)CCNC(=O)c2ccc(Cl)cc2)c1,-17.9
4,O=C(NC(=S)Nc1ccccc1Cl)c1csnn1,9.47
5,CC1CC2(C)Oc3ccccc3CC2C(C)C1CNCCCN(C)C (stereo not shown),8.13
6,Br.COc1ccc(C(=O)CN2CC(C)SC2=Nc2ccc(Cl)cc2)cc1 (stereo not shown),-10.6
7,CCc1cc2c(SCC(=O)NC3CCS(=O)(=O)C3)ncnc2s1 (stereo not shown),-1.87
8,COc1ccc(NC(=O)CN2CCN(c3ccccc3Cl)CC2)cc1,-61.4
9,COc1ccc(O)c(-c2cc(-c3ccccc3Cl)[nH]n2)c1,19.1
10,Cl.O=c1c(-c2ccccc2)c(O)nc(SCCN2CCOCC2)n1-c1ccccc1,26.8
11,Cc1cccc(NC(=O)CSc2nnc(C)c(C)n2)c1,15.3
12,O=C(CCCN1C(=O)/C(=C/c2cccs2)SC1=S)NNC(=O)c1ccc(F)cc1,-13.4
13,Cc1cccc(NC(=O)CN2CCN(C(=O)C3CCCO3)CC2)c1C (stereo not shown),9.91
14,CCN1CCN(S(=O)(=O)c2cc3c(cc2Cl)NC(=O)CO3)CC1,-2.25
15,CC(C)Cn1c(N)c(C(=O)COC(=O)c2cc(-c3ccco3)nc3ccccc23)c(=O)n(C)c1=O,15.2
16,NC(=O)C1CCN(C(=O)Cn2cccc2C(=O)c2ccccc2)CC1,-8.71
17,Cc1ccc(OCC(=O)NCc2ccccn2)cc1,12.4
18,Cc1cc(=O)n2[nH]c(-c3ccc(Cl)cc3)cc2n1,-1.65
19,Cc1cccc(C(=O)Nc2nnc(-c3cccnc3)o2)c1,12.9
20,O=[N+]([O-])c1cc(O)c2ncccc2c1,9.86
21,O=C(NCCCN1CCOCC1)c1cc2c(s1)-c1ccccc1OC2,-44.5
22,COc1ccc(-c2ccc(S(=O)(=O)n3nc(OC(=O)c4cccs4)cc3N)cc2)cc1,6.28
23,CC(=O)c1ccc(NC(=S)Nc2cccc(S(=O)(=O)Nc3c(C)n(C)n(-c4ccccc4)c3=O)c2)cc1,9.89
24,Cc1c(Cl)cccc1N/C(=N/S(=O)(=O)c1cccs1)c1ccccc1,13
25,CC(C)CNS(=O)(=O)c1ccc(S(=O)(=O)N2CCC(N3CCCCC3)CC2)cc1,-2.05
26,CCOc1ccc(C(=O)Nc2c(C(=O)N3CCC(N4CCCCC4)CC3)oc3ccccc23)cc1,-83.2
27,COc1ccc(Br)cc1CN1CCCC(C(=O)N2CCCCCC2)C1.O=C(O)C(=O)O (stereo not shown),-62.4
28,O=C(Nc1nc2ccccc2s1)NC1CCCCC1,-4.88

row,Structure (SMILES),"hERG current change (%, negative = inhibition) at 10uM [%]"
1,Cc1ccc(N(O)C(=O)NCCCCNC(=O)N(O)c2ccc(C)cc2)cc1,21.1
2,CCOc1ccc(NC(=O)C(=O)NCCN2CCN(C(=O)c3ccc(C)cc3)CC2)cc1,-75.2
3,O=S(=O)(O)c1ccc(N=NNc2ccc(Br)cc2)cc1,30.7
4,COc1ccc(N(C)C(=O)CCS(=O)(=O)c2cccc3nsnc23)cc1,1.29
5,N#CC1=C(SCC(=O)Nc2cccc3cccnc23)NC(=O)C(C#N)C12CCCCC2 (stereo not shown),-20.7
6,Cc1oc(-c2ccccc2Cl)nc1CS(=O)CC(=O)NCc1ccc2c(c1)OCO2 (stereo not shown),-40
7,O=C(Cc1ccccc1)NC(C(=O)O)C(O)c1ccc([N+](=O)[O-])cc1 (stereo not shown),18
8,Cl.OCCNc1nc(Nc2ccc(O)cc2)nc2ccccc12,-28.6
9,COC(=O)c1cn(NC(=O)Cc2ccccc2OC)c(=O)c2ccccc12,13.9
10,CCOC(=O)c1[nH]c2ccccc2c1NC(=O)NC1CCCCC1,3.37
11,COC(=O)c1c(-c2ccsc2)oc2ccc(-c3cc(OC)c(OC)c(OC)c3)cc12,10.2
12,COc1ccc(NC(=O)CSc2ccc3nnc(-c4ccccn4)n3n2)c(OC)c1,-25.9
13,Cc1cc(C)nc(N/N=C/C2=C(O)CC(c3ccccc3)CC2=O)n1 (stereo not shown),-7.15
14,O=C(CSc1nnc(Cc2ccccc2)n1-c1ccccc1)N1CCOCC1,-15.5
15,CCC(=O)N1c2ccccc2C(N(C(=O)CC)c2ccccc2)CC1C (stereo not shown),6
16,COc1ccc(N2CC(C(=O)Nc3ccc(N4CCOCC4)cc3)CC2=O)cc1 (stereo not shown),5.17
17,COc1ccc(C(=O)Nc2cccc(C(=O)NCc3ccccc3)c2)cc1,4.28
18,COc1ccc(NC(=O)Nc2ccc(N(C)C)cc2)cc1,10.5
19,Cn1c(SCC(=O)N2CCCc3ccccc32)nc2cccnc21,9.85
20,Cc1ccc(S(=O)(=O)Oc2ccc(/C=C(/NC(=O)c3ccccc3)C(=O)Nc3ccccc3)cc2)cc1,20.8
21,CC1(C)N=c2ccc([N+](=O)[O-])c(N)c2=[N+]1[O-],-3.19
22,CC1Cc2ccccc2N1C(=O)c1cc2cccnc2n(C)c1=O (stereo not shown),10.3
23,COc1ccccc1CNC(=O)c1cc(C(=O)CC(C)C)c[nH]1,-4.79
24,O=C(N/N=C1/CCSC1)c1cccc([N+](=O)[O-])c1,-5.26
25,O=C(OCc1nc2ccccc2c(=O)[nH]1)c1cccs1,12.9
26,CN(C)c1cccc(C(=O)N2CCC(n3nccc3NC(=O)C3CCOC3)CC2)c1 (stereo not shown),3.5
27,CCOC(=O)c1cc(-c2ccccc2)n(CC2CC(c3ccc(OC)cc3)=NO2)n1 (stereo not shown),-36.2
